One experiment concerns the target T1, HA-RalA G23V (mouse) (UniProt P63321).
T1 sequence: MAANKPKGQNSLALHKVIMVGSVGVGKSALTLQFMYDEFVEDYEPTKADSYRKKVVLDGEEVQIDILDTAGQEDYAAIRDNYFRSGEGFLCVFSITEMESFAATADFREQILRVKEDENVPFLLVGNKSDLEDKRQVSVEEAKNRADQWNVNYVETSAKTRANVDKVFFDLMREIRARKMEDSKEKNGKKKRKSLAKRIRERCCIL
Kind of experiment: co-IP; lysates of HEK293T cells triply transfected with HA-RalA (G23V or S28N), RalBP1 and PSD-95; immunoprecipitated with HA antibodies and immunoblotted. Background: In western blotting, separated proteins are transferred to a membrane and probed.

The chains behind the UniProt entries cited, without tags or fusion partners.
UniProt P97879: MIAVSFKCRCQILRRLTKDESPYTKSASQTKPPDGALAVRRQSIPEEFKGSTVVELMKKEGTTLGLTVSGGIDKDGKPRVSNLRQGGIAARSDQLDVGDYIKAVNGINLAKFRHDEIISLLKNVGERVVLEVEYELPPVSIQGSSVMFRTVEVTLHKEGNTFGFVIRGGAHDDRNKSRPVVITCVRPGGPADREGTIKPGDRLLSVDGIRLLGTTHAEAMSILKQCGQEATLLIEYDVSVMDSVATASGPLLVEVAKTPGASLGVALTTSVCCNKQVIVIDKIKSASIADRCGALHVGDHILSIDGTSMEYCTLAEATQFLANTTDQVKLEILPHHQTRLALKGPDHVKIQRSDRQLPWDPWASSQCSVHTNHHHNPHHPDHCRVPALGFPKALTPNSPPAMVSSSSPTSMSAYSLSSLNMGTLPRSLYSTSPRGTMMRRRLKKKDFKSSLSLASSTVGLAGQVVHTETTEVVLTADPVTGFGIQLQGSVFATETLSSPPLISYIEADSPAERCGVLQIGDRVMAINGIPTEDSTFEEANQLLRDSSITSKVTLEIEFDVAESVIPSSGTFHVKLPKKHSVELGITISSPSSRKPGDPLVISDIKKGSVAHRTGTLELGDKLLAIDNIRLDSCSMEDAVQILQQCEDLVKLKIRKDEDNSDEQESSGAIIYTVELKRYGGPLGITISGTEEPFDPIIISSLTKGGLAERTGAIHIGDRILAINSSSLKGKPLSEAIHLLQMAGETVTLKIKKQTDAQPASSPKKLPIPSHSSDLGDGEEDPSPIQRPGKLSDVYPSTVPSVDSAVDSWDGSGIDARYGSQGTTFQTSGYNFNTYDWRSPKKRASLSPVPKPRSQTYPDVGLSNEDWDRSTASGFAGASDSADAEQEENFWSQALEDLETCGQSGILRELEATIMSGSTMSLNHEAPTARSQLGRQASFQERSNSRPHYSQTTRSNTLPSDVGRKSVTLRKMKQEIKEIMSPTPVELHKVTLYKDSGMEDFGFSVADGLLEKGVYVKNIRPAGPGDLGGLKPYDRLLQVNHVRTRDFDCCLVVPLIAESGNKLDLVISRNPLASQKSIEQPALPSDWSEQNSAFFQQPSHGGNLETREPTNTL
UniProt O88382: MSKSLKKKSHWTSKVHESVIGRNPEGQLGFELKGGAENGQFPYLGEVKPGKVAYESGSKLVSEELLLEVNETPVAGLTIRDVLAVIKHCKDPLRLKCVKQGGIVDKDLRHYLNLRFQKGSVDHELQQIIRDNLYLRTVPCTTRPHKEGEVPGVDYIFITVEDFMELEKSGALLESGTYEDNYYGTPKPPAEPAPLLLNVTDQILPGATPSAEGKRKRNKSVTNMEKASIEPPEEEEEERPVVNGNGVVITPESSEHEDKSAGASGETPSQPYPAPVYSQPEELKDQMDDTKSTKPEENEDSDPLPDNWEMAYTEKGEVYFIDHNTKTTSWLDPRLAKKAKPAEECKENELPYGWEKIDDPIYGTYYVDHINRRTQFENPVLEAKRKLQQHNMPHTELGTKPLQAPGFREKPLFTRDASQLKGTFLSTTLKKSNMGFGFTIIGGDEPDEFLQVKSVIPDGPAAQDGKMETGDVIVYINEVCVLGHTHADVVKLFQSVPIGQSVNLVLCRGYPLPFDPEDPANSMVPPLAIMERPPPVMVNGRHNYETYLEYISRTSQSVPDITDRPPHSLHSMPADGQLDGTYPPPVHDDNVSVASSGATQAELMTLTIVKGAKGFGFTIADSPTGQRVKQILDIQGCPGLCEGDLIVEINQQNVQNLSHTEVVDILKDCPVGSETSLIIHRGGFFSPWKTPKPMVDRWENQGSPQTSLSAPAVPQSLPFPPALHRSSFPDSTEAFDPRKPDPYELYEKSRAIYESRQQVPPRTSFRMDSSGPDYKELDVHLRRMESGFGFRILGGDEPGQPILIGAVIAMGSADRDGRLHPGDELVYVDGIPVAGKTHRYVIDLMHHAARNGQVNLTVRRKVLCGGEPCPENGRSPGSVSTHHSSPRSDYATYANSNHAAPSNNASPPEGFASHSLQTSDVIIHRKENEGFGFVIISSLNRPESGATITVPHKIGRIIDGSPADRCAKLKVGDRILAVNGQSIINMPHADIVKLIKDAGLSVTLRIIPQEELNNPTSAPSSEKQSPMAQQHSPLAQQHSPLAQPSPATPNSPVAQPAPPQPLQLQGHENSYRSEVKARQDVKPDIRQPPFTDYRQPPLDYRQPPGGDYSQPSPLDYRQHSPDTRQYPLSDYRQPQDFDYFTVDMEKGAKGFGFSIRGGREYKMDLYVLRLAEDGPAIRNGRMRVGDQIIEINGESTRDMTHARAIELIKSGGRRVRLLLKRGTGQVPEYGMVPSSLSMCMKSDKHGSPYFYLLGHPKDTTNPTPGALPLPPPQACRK
UniProt Q62696: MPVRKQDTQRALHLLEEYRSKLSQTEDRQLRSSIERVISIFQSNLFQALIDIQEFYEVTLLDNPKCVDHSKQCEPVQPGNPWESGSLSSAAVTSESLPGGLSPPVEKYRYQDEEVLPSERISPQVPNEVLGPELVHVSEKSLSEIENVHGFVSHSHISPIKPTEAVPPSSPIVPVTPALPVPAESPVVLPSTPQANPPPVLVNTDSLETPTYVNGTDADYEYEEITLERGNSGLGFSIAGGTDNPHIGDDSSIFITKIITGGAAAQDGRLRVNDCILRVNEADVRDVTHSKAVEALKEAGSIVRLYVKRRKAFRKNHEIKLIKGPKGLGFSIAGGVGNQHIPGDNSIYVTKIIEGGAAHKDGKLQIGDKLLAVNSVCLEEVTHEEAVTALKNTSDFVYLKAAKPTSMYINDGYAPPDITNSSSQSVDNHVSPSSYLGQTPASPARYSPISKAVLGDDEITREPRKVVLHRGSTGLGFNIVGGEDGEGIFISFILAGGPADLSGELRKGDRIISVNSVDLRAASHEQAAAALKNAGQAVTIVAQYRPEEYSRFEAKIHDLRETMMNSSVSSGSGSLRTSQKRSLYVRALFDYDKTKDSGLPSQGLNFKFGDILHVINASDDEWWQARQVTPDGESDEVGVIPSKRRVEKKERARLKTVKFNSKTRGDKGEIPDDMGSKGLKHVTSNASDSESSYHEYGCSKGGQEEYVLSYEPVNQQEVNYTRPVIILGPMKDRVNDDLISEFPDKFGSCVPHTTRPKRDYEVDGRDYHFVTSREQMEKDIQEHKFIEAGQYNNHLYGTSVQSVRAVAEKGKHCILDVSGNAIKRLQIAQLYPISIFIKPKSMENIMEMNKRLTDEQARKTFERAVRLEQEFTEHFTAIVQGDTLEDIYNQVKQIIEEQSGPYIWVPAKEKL
UniProt Q15311: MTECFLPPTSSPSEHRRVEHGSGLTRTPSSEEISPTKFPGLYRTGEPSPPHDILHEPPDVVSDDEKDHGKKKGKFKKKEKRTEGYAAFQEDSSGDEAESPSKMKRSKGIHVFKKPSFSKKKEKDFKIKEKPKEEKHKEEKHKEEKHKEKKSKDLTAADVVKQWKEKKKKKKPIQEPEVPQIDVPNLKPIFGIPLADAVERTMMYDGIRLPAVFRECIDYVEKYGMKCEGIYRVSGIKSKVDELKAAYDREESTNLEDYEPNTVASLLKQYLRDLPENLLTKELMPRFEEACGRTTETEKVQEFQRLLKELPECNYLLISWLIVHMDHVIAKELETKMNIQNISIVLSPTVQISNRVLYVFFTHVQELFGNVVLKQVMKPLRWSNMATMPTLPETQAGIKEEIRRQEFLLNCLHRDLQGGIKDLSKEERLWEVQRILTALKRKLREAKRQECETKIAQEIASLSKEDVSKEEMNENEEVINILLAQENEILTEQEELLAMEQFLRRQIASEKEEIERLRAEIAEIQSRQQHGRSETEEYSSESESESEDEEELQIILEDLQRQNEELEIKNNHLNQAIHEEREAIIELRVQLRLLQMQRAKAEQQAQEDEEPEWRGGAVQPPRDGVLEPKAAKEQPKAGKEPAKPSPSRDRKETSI

A further experiment concerns the target T2, HA-RalA S28N (mouse) (UniProt P63321).
T2 sequence: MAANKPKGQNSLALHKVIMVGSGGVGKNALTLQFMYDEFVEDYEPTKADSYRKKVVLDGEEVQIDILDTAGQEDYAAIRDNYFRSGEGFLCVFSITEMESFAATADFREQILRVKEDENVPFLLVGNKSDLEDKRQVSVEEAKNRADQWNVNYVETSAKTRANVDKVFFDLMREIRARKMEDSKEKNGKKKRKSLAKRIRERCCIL
The description is as above.

The target of experiment [1] is GRIP1 (endogenous, rat brain) (rat (endogenous in rat brain)) (UniProt P97879). Kind of experiment: co-IP; deoxycholate (1%) extracts of the crude synaptosomal fraction of adult rat brain; immunoprecipitated with PSD-95 or RalBP1 antibodies (boiled antibodies as control) and immunoblotted.
The target of experiment [2] is T3, SAP102 (endogenous, rat brain) (rat (endogenous in rat brain)) (UniProt Q62936).
T3 sequence: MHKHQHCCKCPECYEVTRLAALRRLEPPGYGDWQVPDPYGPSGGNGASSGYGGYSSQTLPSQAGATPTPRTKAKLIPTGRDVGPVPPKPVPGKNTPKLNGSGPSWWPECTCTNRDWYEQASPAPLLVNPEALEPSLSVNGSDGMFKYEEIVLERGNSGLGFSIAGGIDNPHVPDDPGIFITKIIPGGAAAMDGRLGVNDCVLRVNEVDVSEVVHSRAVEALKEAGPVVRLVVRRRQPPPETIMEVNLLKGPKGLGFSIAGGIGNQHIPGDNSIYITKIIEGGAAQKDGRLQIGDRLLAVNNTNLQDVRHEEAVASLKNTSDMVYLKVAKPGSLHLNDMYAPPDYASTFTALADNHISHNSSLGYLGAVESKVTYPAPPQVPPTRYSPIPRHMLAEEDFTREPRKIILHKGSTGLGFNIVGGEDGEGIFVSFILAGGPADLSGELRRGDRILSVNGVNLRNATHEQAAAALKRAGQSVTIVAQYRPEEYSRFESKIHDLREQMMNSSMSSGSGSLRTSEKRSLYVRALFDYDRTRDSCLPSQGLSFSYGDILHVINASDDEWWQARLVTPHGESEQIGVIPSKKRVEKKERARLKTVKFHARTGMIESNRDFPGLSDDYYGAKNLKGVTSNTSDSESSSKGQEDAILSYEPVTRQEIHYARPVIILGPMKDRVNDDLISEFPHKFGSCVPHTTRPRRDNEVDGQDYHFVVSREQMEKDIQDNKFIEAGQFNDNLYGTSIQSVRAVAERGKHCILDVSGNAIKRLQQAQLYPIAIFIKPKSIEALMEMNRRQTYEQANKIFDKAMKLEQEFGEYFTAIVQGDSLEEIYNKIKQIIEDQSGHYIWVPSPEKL
The experiment is described as above.

For experiment [3], the target named is S-SCAM (endogenous, rat brain) (rat (endogenous in rat brain)) (UniProt O88382). Described as above.
Experiment [4] deals with SAP97 (endogenous, rat brain) (rat (endogenous in rat brain)) (UniProt Q62696). Described as above.
Experiment [5] deals with T4, RalA (endogenous, cultured rat hippocampal neurons) (rat (endogenous in cultured hippocampal neurons)), P63322.
T4 chain: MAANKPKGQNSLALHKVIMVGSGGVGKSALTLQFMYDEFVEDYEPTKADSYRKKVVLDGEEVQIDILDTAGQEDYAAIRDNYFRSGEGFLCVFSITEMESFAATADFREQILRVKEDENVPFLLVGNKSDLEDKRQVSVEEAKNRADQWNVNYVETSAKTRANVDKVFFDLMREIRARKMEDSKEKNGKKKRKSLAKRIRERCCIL
Put plainly: co-IP; lysates of cultured neurons (>DIV 18), with or without NMDA treatment; immunoprecipitated with PSD-95 or POB1 antibodies and immunoblotted. As to conditions: remark: other sources report otherwise.

The results in this text go back to paper PMC2730530.

No constants are given. Whether binding was seen depends on the method and setting. In cells and extracts the contact can be indirect. Some results given as binding are weak or reduced against the parent protein; the word gives no strength. For some of these results: Tags and fused reporters may be left off the sequences shown.

Regarding RalBP1 (WT) (from UniProt Q15311 1-655), the binding entry with HA-RalA G23V (mouse) is “binds”; in the experiment with HA-RalA S28N (mouse), “no binding”.

B1: RalBP1 (endogenous, rat) (protein, UniProt Q62796 1-647)
chain: MTECFLPPTSSPSEHRRAEHGSGLTRTPSSEEISPTKFPELYRTGEPSPPHDILHEPPDIVSDDEKDHGKKKGKFKKKEKRTEGYVAFQEDSSGDEAESPSKMKRSKGIHVFKKPSFSKKKEKDFKIKEKPKEEKHKEEKHKEEKHKEKKCKDFTAADVVKQWKEKKKKKKPTQEPEVPQTDAPSLRPIFGAPFADAVERTMMYDGIRLPAVFRECVDYMEKHGMKCEGIYRVSGIKSKVDELKAAYDREESPNLEEYEPNTVASLLKQYLRDLPENLLTKELMPRFEEACGRTTEVEKVQEFQRLLRELPEYNHLLLSWLIVHMDHVIAKELETKMNIQNISIVLSPTVQISNRVLYVLFTHVQELFGTVLLKQVTRPLRWSNMATMPTLPETQAGIKEEIRRQEFLLNCLHRDLQGGIKDFSKEERLWEVQRILTALKRKLREAKRQECETKIAQEIASLSKEDVSKEETNENEEVINILLAQENEILTEQEELLAMEQFLRRQIASEKEEIDRLRAEIAEIQSRQHGRSETEEYSSDSESESEDEEELQIILEDLQRQNEELEIKNNHLNQAVHEEREAIVELRVQLRLLQMLRAKSEQQLQEEEEPERRGGTGPLPCEGVLEVRAAKEQAKPSPSKDRKETPI
Turning to B1, the binding entry in experiment [1], in experiment [2], in experiment [3] and in experiment [4] was “no binding” throughout.

B2: RalBP1 (endogenous, rat), Q62796 1-647 (protein)
chain: MTECFLPPTSSPSEHRRAEHGSGLTRTPSSEEISPTKFPELYRTGEPSPPHDILHEPPDIVSDDEKDHGKKKGKFKKKEKRTEGYVAFQEDSSGDEAESPSKMKRSKGIHVFKKPSFSKKKEKDFKIKEKPKEEKHKEEKHKEEKHKEKKCKDFTAADVVKQWKEKKKKKKPTQEPEVPQTDAPSLRPIFGAPFADAVERTMMYDGIRLPAVFRECVDYMEKHGMKCEGIYRVSGIKSKVDELKAAYDREESPNLEEYEPNTVASLLKQYLRDLPENLLTKELMPRFEEACGRTTEVEKVQEFQRLLRELPEYNHLLLSWLIVHMDHVIAKELETKMNIQNISIVLSPTVQISNRVLYVLFTHVQELFGTVLLKQVTRPLRWSNMATMPTLPETQAGIKEEIRRQEFLLNCLHRDLQGGIKDFSKEERLWEVQRILTALKRKLREAKRQECETKIAQEIASLSKEDVSKEETNENEEVINILLAQENEILTEQEELLAMEQFLRRQIASEKEEIDRLRAEIAEIQSRQHGRSETEEYSSDSESESEDEEELQIILEDLQRQNEELEIKNNHLNQAVHEEREAIVELRVQLRLLQMLRAKSEQQLQEEEEPERRGGTGPLPCEGVLEVRAAKEQAKPSPSKDRKETPI
In the case of B2, in experiment [5], the binding entry is reported as “no binding”.
